Experimental data from PubChem BioAssay (Tox21).
Values joined by “and” are separate entries in the source; they are usually repeats but may differ in a detail not shown here. Identical values can stand only once. The shares of active, inactive and inconclusive entries below differ from those in the screen. Potencies beside an inconclusive call are fits to weak or partial responses and may not hold up. Active and inactive are the calls of the source. Unless noted, calls follow the shape of the dose curve; as a rule, active = well fitted curve in the direction sought with a large enough effect in the repeat runs; inconclusive = weak or mixed curves; inactive = no such curve, though single readings can be large; an effect the other way counts as inactive or inconclusive.

How the values were obtained:
[1] = biological target: Estrogen receptor (Homo sapiens) (UniProt P03372); test: qHTS assay to identify small molecule agonists of the estrogen receptor alpha (ER-alpha) signaling pathway using the BG1 cell line (AID 743079); details: BG1Luc4E2 cells, ERE-luciferase agonist, 22 h; activation: at 70.3 µM (top of the series) unless noted; also: nearly all actives have a fitted effect of over 20% in size; as to activation: % is scaled to controls: 0 for no effect and ±100 for the full control effect
[2] = biological target: Peroxisome proliferator-activated receptor gamma (Homo sapiens) (UniProt P37231); test: qHTS assay to identify small molecule agonists of the peroxisome proliferator-activated receptor gamma (PPARg) signaling pathway (AID 743094; active = well fitted activation curve with a large enough effect in the signal ratio in the repeat runs, not every such curve was filed as active; inconclusive = weak or mixed curves, or effect the other way; inactive = no such curve, though single readings can be large or run the other way; the % refers to the signal ratio; as to activation: % is scaled to controls: 0 for no effect and ±100 for the full control effect); details: HEK293H PPARg-UAS-bla, beta-lactamase FRET ratio, 17 h; activation: at 57 µM (top of the series) unless noted
Method in brief: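 Stably transfected HEK293H cells (GeneBLAzer PPARg UAS-bla) were incubated with test substances for 17 h at 37C after a 5 h pre-incubation; beta-lactamase activity was then detected by FRET substrate fluorescence.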

[3] = biological target: Peroxisome proliferator-activated receptor gamma (Homo sapiens) (UniProt P37231); test: qHTS assay to identify small molecule antagonists of the peroxisome proliferator-activated receptor gamma (PPARg) signaling pathway (AID 743191; calls by dose curve; also: nearly all actives have a fitted effect of over 30% in size; as to ratio activity, negative = inhibition: % is scaled to controls: 0 for no effect and ±100 for the full control effect); details: HEK293H PPARg-UAS-bla, beta-lactamase ratio, antagonist, 17 h; ratio activity, negative = inhibition: at 62.6 µM (top of the series) unless noted
Method in brief: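 Beta-lactamase reporter under UAS control in HEK293H PPARg-bla cells; compound treatment 17 h at 37C. Read-out: fluorescence intensity after 1 h room-temperature incubation with LiveBLAzer B/G FRET substrate.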

[4] = biological target: Aryl hydrocarbon receptor (Homo sapiens) (UniProt P35869); test: qHTS assay to identify small molecule that activate the aryl hydrocarbon receptor (AhR) signaling pathway (AID 743085); also: nearly all actives have a fitted effect of over 15% in size;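 as to activation: HG2L7.5c1 human HepG2 liver cells with stably integrated DRE-driven firefly reporter; % is scaled to controls: 0 for no effect and ±100 for the full control effect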
Method in brief: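 Compounds were tested in HepG2 hepatocellular carcinoma cells harbouring a stably integrated luciferase gene under control of 20 DREs. Increased reporter signal after 24 h treatment at 37C was taken as AhR activation.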

[5] = qHTS assay to identify small molecule that activate the aryl hydrocarbon receptor (AhR) signaling pathway - cell viability counter screen (AID 743086); also: nearly all actives have a fitted effect of over 45% in size
Method in brief: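 Cytotoxicity counter screen: CellTiter-Fluor signal (30 min, 37 C) in 4000 HepG2 cells/well carrying the DRE-luciferase reporter, following 24 h compound exposure at 37 C.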

[6] = qHTS assay to identify small molecule antagonists of the peroxisome proliferator-activated receptor gamma (PPARg) signaling pathway - cell viability counter screen (AID 743194); details: PPARg-bla HEK293H viability, CellTiter-Glo luminescence, 17 h, co-treated with 50 nM rosiglitazone; activity change, negative = cytotoxicity: at 62.6 µM (top of the series) unless noted; also: nearly all actives have a fitted effect of over 55% in size
Method in brief: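 Viability was measured as CellTiter-Glo luminescence in GeneBLAzer PPARg UAS-bla HEK293H cells. These cells had been exposed 17 h at 37 C to compounds together with rosiglitazone at 50 nM final, with the beta-lactamase readout taken in the same wells.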

[7] = qHTS assay to identify aromatase inhibitors - cell viability counter screen (AID 743084); details: MCF-7 aro ERE viability, CellTiter-Fluor, 24 h; activity change, negative = cytotoxicity: at 70.3 µM (top of the series);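 also: cells stimulated with testosterone during compound exposure; nearly all actives have a fitted effect of over 55% in size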
Potency is read from the fitted curve at half-maximal effect; tags tell the direction and shape of the fitted curve or compound fluorescence and quenching.

Chain of UniProt P37231 (P37231 whole entry, looked up): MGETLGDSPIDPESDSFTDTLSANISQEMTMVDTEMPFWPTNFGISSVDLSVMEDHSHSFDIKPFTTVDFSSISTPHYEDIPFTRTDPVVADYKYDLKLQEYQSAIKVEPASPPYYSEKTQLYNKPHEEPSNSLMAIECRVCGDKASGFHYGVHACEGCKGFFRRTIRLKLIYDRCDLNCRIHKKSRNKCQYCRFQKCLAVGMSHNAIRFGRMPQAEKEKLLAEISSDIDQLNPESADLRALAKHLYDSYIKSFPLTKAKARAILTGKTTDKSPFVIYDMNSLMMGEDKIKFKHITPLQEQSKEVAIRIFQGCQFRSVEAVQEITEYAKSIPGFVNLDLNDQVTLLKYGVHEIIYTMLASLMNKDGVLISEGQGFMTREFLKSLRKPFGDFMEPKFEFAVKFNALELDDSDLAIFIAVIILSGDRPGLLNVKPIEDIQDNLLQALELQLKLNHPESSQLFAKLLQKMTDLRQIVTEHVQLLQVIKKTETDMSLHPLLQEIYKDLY
Chain of UniProt P03372 (P03372 whole entry, looked up): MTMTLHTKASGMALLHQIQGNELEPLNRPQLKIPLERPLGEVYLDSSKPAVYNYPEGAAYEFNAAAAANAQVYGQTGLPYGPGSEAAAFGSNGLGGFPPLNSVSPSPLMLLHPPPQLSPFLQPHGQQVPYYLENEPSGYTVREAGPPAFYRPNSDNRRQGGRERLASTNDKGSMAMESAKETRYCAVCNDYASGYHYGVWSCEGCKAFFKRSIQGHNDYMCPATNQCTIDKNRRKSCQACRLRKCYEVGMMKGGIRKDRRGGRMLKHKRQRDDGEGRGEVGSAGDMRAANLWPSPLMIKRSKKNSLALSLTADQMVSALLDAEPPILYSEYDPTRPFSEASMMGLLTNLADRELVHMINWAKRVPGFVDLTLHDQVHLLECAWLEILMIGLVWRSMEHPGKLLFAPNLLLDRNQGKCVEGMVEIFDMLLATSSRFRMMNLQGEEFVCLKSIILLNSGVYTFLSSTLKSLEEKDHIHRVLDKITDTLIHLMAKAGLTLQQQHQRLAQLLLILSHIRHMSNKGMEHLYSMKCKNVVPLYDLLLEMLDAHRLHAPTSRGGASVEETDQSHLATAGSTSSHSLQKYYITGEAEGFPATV
Chain of UniProt P35869 (P35869 whole entry, looked up): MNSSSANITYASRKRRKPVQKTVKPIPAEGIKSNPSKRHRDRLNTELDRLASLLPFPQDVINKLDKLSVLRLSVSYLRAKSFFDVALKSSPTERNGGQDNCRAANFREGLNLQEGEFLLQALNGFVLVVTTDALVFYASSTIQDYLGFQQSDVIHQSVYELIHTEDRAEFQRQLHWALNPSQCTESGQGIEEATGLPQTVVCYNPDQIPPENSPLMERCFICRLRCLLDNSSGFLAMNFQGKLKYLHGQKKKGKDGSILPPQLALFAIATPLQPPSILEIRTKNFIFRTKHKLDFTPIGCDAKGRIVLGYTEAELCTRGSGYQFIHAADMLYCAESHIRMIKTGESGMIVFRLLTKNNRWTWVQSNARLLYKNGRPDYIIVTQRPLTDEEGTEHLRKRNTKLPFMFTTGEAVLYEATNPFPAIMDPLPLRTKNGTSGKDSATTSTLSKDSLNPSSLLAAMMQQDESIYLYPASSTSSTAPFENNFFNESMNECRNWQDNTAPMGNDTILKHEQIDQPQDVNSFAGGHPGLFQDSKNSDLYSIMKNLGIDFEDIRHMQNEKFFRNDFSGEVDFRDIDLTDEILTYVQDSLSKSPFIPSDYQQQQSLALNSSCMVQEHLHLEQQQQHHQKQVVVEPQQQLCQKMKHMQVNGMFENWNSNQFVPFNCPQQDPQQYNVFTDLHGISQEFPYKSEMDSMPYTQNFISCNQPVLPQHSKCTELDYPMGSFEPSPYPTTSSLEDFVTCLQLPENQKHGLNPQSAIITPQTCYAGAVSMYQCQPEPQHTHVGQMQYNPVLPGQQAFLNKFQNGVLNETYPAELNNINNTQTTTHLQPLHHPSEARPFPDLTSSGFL

With `O=[N+]([O-])c1ccc(/C=C/c2ccc([N+](=O)[O-])cc2S(=O)(=O)O)c(S(=O)(=O)O)c1` the Potency [1] was “inactive”, the Potency [2] was “inactive” and the ratio activity, negative = inhibition [3] was inconclusive: 22.2%.
In the case of `CCOC(=O)CC(=O)c1ccccc1`, the Potency [1] is reported as inconclusive: 77 µM [inhibitor, partial curve, poor fit] and the Potency [4] is reported as inconclusive: 54.5 µM [activator, partial curve, poor fit].
With `NCCCN1CCOCC1` the Potency [1] was “inactive”, the Potency [2] was “inactive” and the Potency [3] was “inactive”.
For `CCCCNC(=O)NCCCC`, the Potency [1] was “inactive”, the Potency [4] was “inactive” and the Potency [3] was “inactive”.
For `COC(=O)[C@@H]1[C@H]2C[C@H]3c4[nH]c5ccccc5c4CCN3C[C@@H]2CC[C@@H]1O`, the Potency [1] was “inactive”, the Potency [4] was inconclusive: 26.6 µM [activator, partial curve] and the ratio activity, negative = inhibition [3] was inconclusive: 16%.
With `CCCCCCCCCCCCOCCOS(=O)(=O)O` the Potency [1] was inconclusive: 61.1 µM [inhibitor, single point], the Potency [2] was inconclusive: 17.4 µM [activator, partial curve, poor fit] and the Potency [3] was “inactive”.
For `CN1C(=O)N(C)C(O)C1O` (configuration not stated), the Potency [1] was “inactive” and the Potency [2] was “inactive”.
In the case of `O=C(O)[C@H](O)c1ccccc1`, the activation [1] is reported as inconclusive: 9.26% [phenotype inactive], the Potency [5] is reported as “inactive” and the Potency [3] is reported as “inactive”.
With `CC1(O)CSC(C)(O)CS1` (configuration not stated) the Potency [1] was “inactive” and the Potency [2] was inconclusive: 24.5 µM [activator].
With `CCOC(=O)c1ccccc1` the activation [1] was inconclusive: 4.9% [phenotype inactive], the Potency [5] was inconclusive: 27.3 µM [rising, partial curve, poor fit] and the Potency [3] was “inactive”.
In the case of `CCC(CO)CO`, the Potency [1] is reported as “inactive”, the Potency [2] is reported as “inactive” and the Potency [6] is reported as inconclusive: 0.549 µM [rising, partial curve, poor fit].
In the case of `CC1=C2[C@H](/C=C(\C)C(=O)O)CC[C@@H](C)[C@H]2CC1`, the activation [1] is reported as inconclusive: 8% [phenotype inactive] [at 95 µM], the activation [2] is reported as inconclusive: -12.9% [at 78.9 µM] and the Potency [3] is reported as inconclusive: 57 µM [inhibitor, single point].
In the case of `C=C(C)C(=O)OCCOP(=O)(O)O`, the Potency [1] is reported as inconclusive: 75.7 µM [activator], the Potency [7] is reported as “inactive” and the Potency [3] is reported as “inactive”.
With `O=C(O)C(Cc1cc(I)c(O)c(I)c1)c1ccccc1` (configuration not stated) the activation [1] was inconclusive: 17.7% [phenotype inactive], the Potency [2] was inconclusive: 1.9 µM [activator] and the Potency [3] was active: 37.6 µM.
With `Nc1cnn([C@@H]2O[C@H](CO)[C@@H](O)[C@H]2O)c(=O)n1` the Potency [1] was “inactive”, the Potency [7] was inconclusive: 43.3 µM [cytotoxic, partial curve] and the Potency [2] was inconclusive: 34.7 µM [inhibitor, partial curve, poor fit]. The ratio activity, negative = inhibition [3] was inconclusive: -45.8%.
With `COc1ccc(Nc2ccccc2)c(C)c1` the activation [1] was inconclusive: -0.419% [phenotype inactive], the Potency [7] was inconclusive: 68.6 µM [cytotoxic] and the ratio activity, negative = inhibition [3] was inconclusive: -19.2%. For the same compound, the Potency [6] was inconclusive: 43.6 µM [rising, partial curve, poor fit].
For `C[C@]12CCC(=O)C=C1CC[C@@H]1[C@@H]2CC[C@@]2(C)[C@H]1CC[C@]2(O)C(=O)CO`, the Potency [1] was inconclusive: 0.841 µM [activator, full curve], the Potency [4] was “inactive” and the Potency [2] was “inactive”. The Potency [3] was inconclusive: 10.6 µM [activator, partial curve, poor fit].
For `CC(C)(Oc1ccc(C2CC2(Cl)Cl)cc1)C(=O)O` (configuration not stated), the activation [1] was inconclusive: -7.21% [phenotype inactive], the Potency [7] was inconclusive: 29.4 µM [rising, partial curve, poor fit] and the Potency [2] was inconclusive: 12 µM [activator, partial curve] and inconclusive: 10.5 µM [activator, full curve] and inconclusive: 12.3 µM [activator, single point]. The Potency [3] was “inactive” and the Potency [6] was inconclusive: 0.333 µM [rising, full curve].
In the case of `COC(=O)/C=C(\C)CCC=C(C)C`, the Potency [1] is reported as “inactive”, the Potency [7] is reported as inconclusive: 19.3 µM [rising, partial curve, poor fit] and the Potency [3] is reported as “inactive”.
With `Oc1ccc(Nc2ccccc2)cc1` the Potency [1] was active: 30.6 µM, the activation [2] was inconclusive: -19% and the Potency [3] was active: 19.5 µM. The Potency [6] was inconclusive: 0.219 µM [rising, full curve, poor fit].
In the case of `O=C(Cl)c1ccc(F)c(Cl)c1`, the Potency [1] is reported as inconclusive: 34.4 µM [activator, partial curve, poor fit], the Potency [7] is reported as “inactive” and the activation [2] is reported as inconclusive: -4.15%. The ratio activity, negative = inhibition [3] was inconclusive: -20.4%.
